Measurements as given in the supplement of paper PMC6531468.
The other results are listed elsewhere or left out. Values come from read counts of a selection and are noisy. Each score is taken over the longer molecules that contain the sequence shown.

Tests used:
Assay in all cases: 6-mer SELEX enrichment z-score vs GST control; IMP3 is the RNA-binding protein IGF2BP3; higher = more enriched by binding
IMP3 KH1-4 = conditions: construct: KH1-4 (164-579); SELEX round: R4
Method: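 SELEX-seq with GST-tagged IMP3 KH1-4 (Pro164-Lys579) and an N40 RNA pool, round 4. 6-mer z-score of sequence-tag enrichment normalised to the corresponding GST SELEX round; RNA k-mers written as DNA (T for U).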

IMP3 RRM1-2 = conditions: construct: RRM1-2 (1-163); SELEX round: R2
Chain of IMP3 RRM1-2 (chain, as listed by the source): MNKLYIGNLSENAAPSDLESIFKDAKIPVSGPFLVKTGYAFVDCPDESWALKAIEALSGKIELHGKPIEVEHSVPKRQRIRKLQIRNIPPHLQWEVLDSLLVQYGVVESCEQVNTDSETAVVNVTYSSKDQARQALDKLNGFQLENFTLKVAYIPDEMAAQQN
Method: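 SELEX-seq with GST-tagged IMP3 RRM1-2 (Met1-Asn163) and an N40 RNA pool, round 2. 6-mer enrichment z-score normalised to GST SELEX. RNA written as DNA (T = U).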

IMP3 full-length = IMP3 full-length (UniProt O00425); conditions: construct: FL IMP3 (1-579); SELEX round: R4
Chain of UniProt O00425 (O00425 whole entry): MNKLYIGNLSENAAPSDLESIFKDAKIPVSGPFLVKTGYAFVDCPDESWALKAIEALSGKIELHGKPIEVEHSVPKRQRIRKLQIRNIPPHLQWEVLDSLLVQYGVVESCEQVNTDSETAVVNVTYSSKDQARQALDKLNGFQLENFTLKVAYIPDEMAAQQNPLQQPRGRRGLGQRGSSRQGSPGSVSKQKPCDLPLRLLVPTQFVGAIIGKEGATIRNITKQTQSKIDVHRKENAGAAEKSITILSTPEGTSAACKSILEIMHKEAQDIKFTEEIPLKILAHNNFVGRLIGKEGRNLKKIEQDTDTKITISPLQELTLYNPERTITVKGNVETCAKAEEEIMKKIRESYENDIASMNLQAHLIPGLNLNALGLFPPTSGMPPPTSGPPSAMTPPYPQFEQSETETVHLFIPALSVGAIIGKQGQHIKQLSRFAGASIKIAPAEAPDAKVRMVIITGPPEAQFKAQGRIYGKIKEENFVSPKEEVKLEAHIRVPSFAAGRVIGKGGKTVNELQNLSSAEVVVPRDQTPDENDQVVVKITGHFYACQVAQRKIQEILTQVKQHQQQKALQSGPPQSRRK
Method: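 SELEX-seq with GST-tagged full-length IMP3 and an N40 RNA pool, round 4. Each 6-mer is scored as an enrichment z-score of sequence tags containing it, normalised to the matching GST SELEX round. RNA written as DNA (T = U).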

IMP3 KH1-2 = conditions: construct: KH1-2 (164-376); SELEX round: R4
Chain of IMP3 KH1-2 (chain, as listed by the source): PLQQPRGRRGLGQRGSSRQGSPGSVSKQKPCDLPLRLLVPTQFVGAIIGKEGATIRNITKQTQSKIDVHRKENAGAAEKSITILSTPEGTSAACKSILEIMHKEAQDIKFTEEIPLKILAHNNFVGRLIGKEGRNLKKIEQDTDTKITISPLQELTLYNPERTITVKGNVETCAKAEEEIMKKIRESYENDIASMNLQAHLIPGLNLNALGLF
Method: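 SELEX-seq with GST-tagged IMP3 KH1-2 (Pro164-Phe376) and an N40 RNA pool, round 4 (stringent 300/600 mM KCl washes). 6-mer z-score of sequence-tag enrichment normalised to the corresponding GST SELEX round; RNA k-mers written as DNA (T for U).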

IMP3 KH3-4 = conditions: construct: KH3-4 (377-579); SELEX round: R4
Chain of IMP3 KH3-4 (chain, as listed by the source): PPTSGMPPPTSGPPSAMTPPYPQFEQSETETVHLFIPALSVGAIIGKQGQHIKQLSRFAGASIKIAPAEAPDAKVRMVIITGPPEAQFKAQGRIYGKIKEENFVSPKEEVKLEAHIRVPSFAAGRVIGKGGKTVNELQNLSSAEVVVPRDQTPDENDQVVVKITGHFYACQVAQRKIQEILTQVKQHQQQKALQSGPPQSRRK
Method: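 SELEX-seq with GST-tagged IMP3 KH3-4 (Pro377-Lys579) and an N40 RNA pool, round 4. 6-mer z-score of sequence-tag enrichment normalised to the corresponding GST SELEX round; RNA k-mers written as DNA (T for U).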

Chain of IMP3 KH1-4 (chain, as listed by the source): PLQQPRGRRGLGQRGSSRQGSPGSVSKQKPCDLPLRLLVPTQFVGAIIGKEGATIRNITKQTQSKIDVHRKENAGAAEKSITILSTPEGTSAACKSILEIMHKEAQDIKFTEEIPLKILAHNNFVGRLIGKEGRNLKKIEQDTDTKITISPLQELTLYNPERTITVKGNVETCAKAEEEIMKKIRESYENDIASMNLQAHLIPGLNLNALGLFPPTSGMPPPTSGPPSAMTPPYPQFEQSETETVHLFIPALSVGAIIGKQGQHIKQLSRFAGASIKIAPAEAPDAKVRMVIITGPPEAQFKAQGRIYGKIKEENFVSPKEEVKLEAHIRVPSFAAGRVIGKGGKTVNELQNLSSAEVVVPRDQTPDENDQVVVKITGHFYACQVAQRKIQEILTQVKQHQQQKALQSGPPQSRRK

Sequence | 6-mer SELEX enrichment z-score (IMP3 KH1-4) | 6-mer SELEX enrichment z-score (IMP3 RRM1-2) | 6-mer SELEX enrichment z-score (IMP3 full-length) | 6-mer SELEX enrichment z-score (IMP3 KH1-2) | 6-mer SELEX enrichment z-score (IMP3 KH3-4)
CCTGAC | -1.49 | -0.955 | -1.53 | -1.29 | -1.7
GATAAT | 1.24 | -0.603 | -0.077 | 0.983 | 1.96
TCCCCC | 0.632 | -0.58 | -0.563 | 1.01 | -0.667
GGCTCT | 0.006 | 0.611 | 0.455 | 0.091 | 0.176
TCTTAC | 0.239 | 0.325 | 0.076 | 0.214 | 0.089
TCTGTC | 0.625 | 0.306 | 0.46 | 0.428 | 0.271
GTTAGC | -0.067 | 0.219 | 0.039 | -0.044 | -0.023
CCTTCT | 0.319 | 0.143 | -0.174 | 0.315 | -0.035
CTATAG | 0.484 | 0.034 | 0.053 | 0.433 | 0.572
GGATGC | 0.253 | -0.176 | 0.098 | 0.239 | 0.249
AGCTCT | -0.241 | 0.29 | 0.04 | -0.146 | -0.122
GCCCCA | -0.597 | -0.679 | -0.292 | -0.264 | -1.17
GCCGCC | 0.365 | -0.323 | 0.728 | 0.553 | -0.395
GACAAA | -0.321 | -1.18 | -0.817 | -0.384 | -0.033
ATGGAG | 0.681 | -0.304 | 0.111 | 0.391 | 0.749
AAGTTT | -0.214 | -0.045 | -0.406 | -0.251 | 0.06
GTTCTA | 0.128 | 0.276 | -0.059 | 0.106 | 0.259
CGATCT | -0.572 | -0.05 | -0.181 | -0.481 | -0.553
GCTCCC | 0.121 | -0.156 | 0.13 | 0.154 | -0.546
TGATAT | 1.16 | -0.107 | 0.045 | 0.918 | 1.55

Sequence | 6-mer SELEX enrichment z-score (IMP3 KH1-4) | 6-mer SELEX enrichment z-score (IMP3 RRM1-2) | 6-mer SELEX enrichment z-score (IMP3 full-length) | 6-mer SELEX enrichment z-score (IMP3 KH1-2) | 6-mer SELEX enrichment z-score (IMP3 KH3-4)
AGCCTA | -1.02 | -0.663 | -0.806 | -0.906 | -0.853
ACATTA | 2.28 | 1.52 | 1.69 | 2.28 | 2.68
CCCTAC | -0.879 | -0.176 | -0.979 | -0.731 | -1.36
ACCGAT | -0.679 | -1.07 | -0.875 | -0.442 | -0.786
AATGGA | 0.818 | -1.07 | -0.515 | 0.321 | 0.968
ATTTGA | 0.733 | -0.266 | -0.232 | 0.454 | 1.24
CCACAC | 0.343 | 1.93 | 0.742 | 0.48 | -0.983
GCTGAT | -0.056 | 0.041 | -0.15 | -0.04 | 0.033
GGACTG | 0.198 | -0.517 | -0.149 | 0.173 | 0.005
ATTTAA | 1.59 | -0.157 | 0.045 | 1.44 | 2.82
GTGTTC | -0.081 | 0.314 | -0.043 | -0.108 | -0.052
GTCTGT | 0.052 | 0.308 | 0.183 | 0.045 | 0.116
GGAACA | 0.898 | 0.946 | 0.779 | 0.501 | 0.594
ATCGTG | -0.534 | -0.031 | -0.279 | -0.637 | -0.498
GCACGA | 0.225 | -0.017 | 0.858 | 0.023 | 0.028
TAGTCT | -0.069 | 0.385 | 0.109 | -0.025 | 0.072
TCGTTA | 0.108 | 0.225 | 0.037 | 0.063 | 0.224
GTGGAG | 0.091 | -0.082 | -0.032 | 0.142 | 0.156
GGACAA | 0.538 | -0.602 | 0.039 | 0.296 | 0.489
GTGTCA | -0.457 | 0.284 | 0.132 | -0.424 | -0.34

Sequence | 6-mer SELEX enrichment z-score (IMP3 KH1-4) | 6-mer SELEX enrichment z-score (IMP3 RRM1-2) | 6-mer SELEX enrichment z-score (IMP3 full-length) | 6-mer SELEX enrichment z-score (IMP3 KH1-2) | 6-mer SELEX enrichment z-score (IMP3 KH3-4)
GCACGT | 0.254 | 0.304 | 0.744 | 0.1 | -0.021
CAGGCC | 0.723 | 0.212 | 1.12 | 0.571 | 0.162
CAACTC | -0.809 | 0.581 | -0.122 | -0.592 | -1.23
CGCGTA | -2.73 | -0.172 | -1.36 | -2.4 | -2.42
TCCCGT | -0.461 | -0.176 | -0.191 | -0.363 | -0.582
GGAGTA | 0.262 | -0.206 | 0.124 | 0.227 | 0.391
TAACCT | -0.683 | -0.685 | -1.24 | -0.691 | -0.806
CCACGG | -0.398 | -0.249 | 0.253 | -0.448 | -0.81
AATCGG | -0.148 | -0.252 | 0.078 | -0.444 | -0.211
CTTGTG | -0.394 | 0.163 | -0.308 | -0.376 | -0.266
TGTATT | 0.401 | 0.24 | 0.011 | 0.393 | 0.598
GTTTAT | 0.417 | 0.292 | 0.114 | 0.399 | 0.722
AACAGG | 0.743 | 0.68 | 1.06 | 0.767 | 0.866
GAACCT | -1.35 | -0.958 | -1.49 | -1.3 | -1.46
TGCCTG | -0.688 | -0.032 | -0.593 | -0.616 | -0.728
CCGTTT | -0.251 | 0.025 | -0.174 | -0.084 | -0.246
AACTAT | 1.45 | -0.352 | -0.173 | 1.26 | 1.8
CGTGCA | 0.114 | 0.137 | 0.532 | 0 | -0.134
CGTCAG | -0.514 | 0.389 | 0.375 | -0.434 | -0.446
TTAACC | -0.46 | -0.804 | -1.21 | -0.464 | -0.491
